The text below walks through data of the BET-seq Pho4 binding data (Le et al. 2018).

Some of the results follow. Values were computed here from the reads of four pooled replicates and scatter widely.

The assay addresses T1, Pho4 (S. cerevisiae) (UniProt P07270).
T1 sequence: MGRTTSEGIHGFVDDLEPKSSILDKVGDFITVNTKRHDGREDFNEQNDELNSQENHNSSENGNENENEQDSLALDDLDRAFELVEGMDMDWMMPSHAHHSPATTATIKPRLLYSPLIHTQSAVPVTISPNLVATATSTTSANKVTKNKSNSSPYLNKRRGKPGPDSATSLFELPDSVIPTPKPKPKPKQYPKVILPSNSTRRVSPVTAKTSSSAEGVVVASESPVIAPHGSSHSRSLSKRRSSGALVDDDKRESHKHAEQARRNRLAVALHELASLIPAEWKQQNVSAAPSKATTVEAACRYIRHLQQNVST
The experiment in a line: relative binding free energy (BET-seq); higher = weaker binding. To be noted: reference: library average.
Take AGTGGCACGTGATATG: the “relative binding free energy” value came to 0 kcal/mol. For TGGGGCACGTGGAAAT, the “relative binding free energy” value is -0.04 kcal/mol. Consider ACTCTCACGTGTGTGG, for which the “relative binding free energy” value worked out at 0.27 kcal/mol. CGTTTCACGTGGGTTT: the “relative binding free energy” value is 0.1 kcal/mol. Take TGGATCACGTGTGTAT: the “relative binding free energy” value was 0.14 kcal/mol. As for TTGGGCACGTGAAAGA, the figure is 0.15 kcal/mol; as for AATTTCACGTGTTAAA, 0.4 kcal/mol; as for AGACGCACGTGGGGTC, -0.16 kcal/mol.

For the sequence ATTGGCACGTGCGTAT, the “relative binding free energy” value was -0.25 kcal/mol.

For the sequence AATCTCACGTGGGGTT, the “relative binding free energy” value worked out at 0.14 kcal/mol.

Consider GTAGGCACGTGATAGA, for which the “relative binding free energy” value is -0.19 kcal/mol.

As to ATTTCCACGTGGGTAT, the “relative binding free energy” value was -0.15 kcal/mol.

GGGAGCACGTGCTTGG: the “relative binding free energy” value is -0.19 kcal/mol. TATGTCACGTGATAGA: the “relative binding free energy” value was found to be 0.07 kcal/mol. Take CAGGTCACGTGATATG: the “relative binding free energy” value was determined as 0.09 kcal/mol.

As to GAGTTCACGTGAGGGT, the “relative binding free energy” value stood at 0.46 kcal/mol. With GTAGGCACGTGTGATT the figure was 0.06 kcal/mol; with GATGTCACGTGAGCAG, 0.41 kcal/mol. As for TGCGGCACGTGGTATT, the figure is -0.37 kcal/mol; as for ATATTCACGTGTTCAT, 0.21 kcal/mol. On to GGGTCCACGTGTGGTC, for which the “relative binding free energy” value is 0.01 kcal/mol. For the sequence GGATTCACGTGGGGGC, the “relative binding free energy” value amounted to 0.18 kcal/mol. Turning to GTGTTCACGTGTTCTT, the “relative binding free energy” value was 0.38 kcal/mol. As for TTAGACACGTGTGTTG, the figure is 0.08 kcal/mol; as for GGTTTCACGTGTAGGT, 0.26 kcal/mol; as for TTTGACACGTGATTCG, 0.02 kcal/mol. Take TGATTCACGTGGCGGT: the “relative binding free energy” value stood at 0.07 kcal/mol. For TGTATCACGTGAGATG, the “relative binding free energy” value came out at 0.31 kcal/mol. ATGTTCACGTGGGTAT: the “relative binding free energy” value amounted to 0.24 kcal/mol. For GGGTACACGTGTGGAA, the “relative binding free energy” value is 0.26 kcal/mol. Consider GTGTCCACGTGAGGGT, for which the “relative binding free energy” value was found to be 0.32 kcal/mol. As for AGTGTCACGTGTTCGT, the figure is 0.01 kcal/mol; as for TGATACACGTGTGTAA, 0.06 kcal/mol; as for AAGAGCACGTGGTATA, -0.2 kcal/mol. As for ATTCACACGTGGAGTG, the figure is -0.05 kcal/mol; as for GTCCGCACGTGTAGGG, -0.02 kcal/mol. For the sequence CGAGGCACGTGGCCGG, the “relative binding free energy” value was -0.14 kcal/mol.

For the sequence AGGGTCACGTGCCAGG, the “relative binding free energy” value was -0.11 kcal/mol.

With TAACTCACGTGTTGGG, the “relative binding free energy” value is 0.27 kcal/mol. On to TTATGCACGTGGAATA, for which the “relative binding free energy” value is -0.2 kcal/mol.

As to TATGGCACGTGTCGCT, the “relative binding free energy” value is -0.12 kcal/mol. As for GCATTCACGTGTATGG, the “relative binding free energy” value stood at 0.29 kcal/mol. As to TTGGCCACGTGAAGGT, the “relative binding free energy” value came to 0.14 kcal/mol. As for GGACTCACGTGGGGAA, the figure is 0.07 kcal/mol; as for GAAGTCACGTGGTGGA, 0.17 kcal/mol. As to GGTTGCACGTGGCGGG, the “relative binding free energy” value was -0.06 kcal/mol.

Turning to TAGATCACGTGAGGAG, the “relative binding free energy” value worked out at 0.38 kcal/mol. For the sequence GTCATCACGTGTCTGG, the “relative binding free energy” value was determined as 0.31 kcal/mol. As for TATTTCACGTGATGAG, the figure is 0.31 kcal/mol; as for GATGGCACGTGCATGG, -0.1 kcal/mol; as for ATAGCCACGTGTGTTT, -0.05 kcal/mol. For the sequence CTTGACACGTGGTTGG, the “relative binding free energy” value was determined as 0.05 kcal/mol. Turning to TTAAACACGTGGTTGA, the “relative binding free energy” value is -0.12 kcal/mol. On to ACTGTCACGTGGTGTA, for which the “relative binding free energy” value was -0.14 kcal/mol.

For the sequence GTGCACACGTGTGTGT, the “relative binding free energy” value is 0.06 kcal/mol. On to ATTAGCACGTGTGAAA, for which the “relative binding free energy” value was 0.07 kcal/mol. Regarding AAAGGCACGTGGAGCG, the “relative binding free energy” value is -0.03 kcal/mol.

Regarding AGGTACACGTGGGATT, the “relative binding free energy” value is 0.16 kcal/mol. In the case of AGTATCACGTGCGGAG, the “relative binding free energy” value came out at 0.08 kcal/mol. Take AGCGGCACGTGGTTAA: the “relative binding free energy” value was -0.14 kcal/mol.

Regarding GGTGGCACGTGATTTG, the “relative binding free energy” value was determined as 0.2 kcal/mol. As for TAAGTCACGTGAGGAA, the figure is 0.38 kcal/mol. As for GAAGGCACGTGGCTGT, the figure is -0.17 kcal/mol; as for ATATGCACGTGGTTGC, -0.09 kcal/mol. Turning to ATTAGCACGTGGTATG, the “relative binding free energy” value is -0.09 kcal/mol. As for TCAGTCACGTGTTAGT, the “relative binding free energy” value is 0.08 kcal/mol.

For the sequence GATGTCACGTGTTGTG, the “relative binding free energy” value was 0.13 kcal/mol. In the case of GGTACCACGTGCTGTG, the “relative binding free energy” value was -0.08 kcal/mol. As to AAGGTCACGTGTGACG, the “relative binding free energy” value came out at 0.07 kcal/mol. On to TAATTCACGTGGGGAG, for which the “relative binding free energy” value turned out to be 0.09 kcal/mol. Take TTTTTCACGTGCCTGT: the “relative binding free energy” value turned out to be 0.18 kcal/mol. On to GCTGCCACGTGGTGGT, for which the “relative binding free energy” value was -0.14 kcal/mol. As to AGTTCCACGTGATGTT, the “relative binding free energy” value was 0.16 kcal/mol.

With AAGTACACGTGTGTGA, the “relative binding free energy” value is 0.2 kcal/mol.

As to TGAGGCACGTGGCCGG, the “relative binding free energy” value is -0.36 kcal/mol. Take GCGGGCACGTGGTAAT: the “relative binding free energy” value is -0.1 kcal/mol. In the case of ATTGTCACGTGGAGTC, the “relative binding free energy” value is 0.18 kcal/mol. With TTTGTCACGTGGGACT the figure was -0.01 kcal/mol. As for TGAGGCACGTGTGCTG, the “relative binding free energy” value was -0.12 kcal/mol. Take TTGGTCACGTGAGTAA: the “relative binding free energy” value is 0.41 kcal/mol. As to GGCGGCACGTGGTTGC, the “relative binding free energy” value was -0.03 kcal/mol. As for GGTTTCACGTGTAGCG, the figure is 0.35 kcal/mol. With GAATTCACGTGGCTTG the figure was 0.39 kcal/mol; with TAGTTCACGTGGATGT, 0.4 kcal/mol.

Regarding GGATGCACGTGCGGGG, the “relative binding free energy” value turned out to be 0.02 kcal/mol. Take TAATGCACGTGAATGA: the “relative binding free energy” value stood at 0.19 kcal/mol.

Regarding TACTACACGTGTTTGT, the “relative binding free energy” value was 0.06 kcal/mol. As for CGGTGCACGTGATAGT, the figure is 0.06 kcal/mol; as for CGTATCACGTGGTTGT, 0.04 kcal/mol. With TGTATCACGTGTCTGT, the “relative binding free energy” value is 0.11 kcal/mol. Consider GTGGGCACGTGTCAGA, for which the “relative binding free energy” value is -0.09 kcal/mol. On to TTGACCACGTGGATTT, for which the “relative binding free energy” value came out at 0.11 kcal/mol. AGATACACGTGATTTG: the “relative binding free energy” value was found to be 0.16 kcal/mol. On to GGTGGCACGTGTATTG, for which the “relative binding free energy” value is -0.01 kcal/mol. For the sequence GCTATCACGTGTAGTG, the “relative binding free energy” value came out at 0.29 kcal/mol. Regarding TGAACCACGTGGAGGT, the “relative binding free energy” value is 0.05 kcal/mol. For AATGGCACGTGCCGTG, the “relative binding free energy” value was -0.09 kcal/mol. As for GAAGTCACGTGAGGCG, the “relative binding free energy” value is 0.34 kcal/mol.

As for TCGGGCACGTGAGGAA, the “relative binding free energy” value was determined as 0.23 kcal/mol. For AGGATCACGTGGGTTG, the “relative binding free energy” value was 0.05 kcal/mol. TATTACACGTGATGAG: the “relative binding free energy” value amounted to 0.09 kcal/mol. With TTACGCACGTGGGGGG, the “relative binding free energy” value is -0.17 kcal/mol.

In the case of TGAGGCACGTGGGGAT, the “relative binding free energy” value is -0.13 kcal/mol. Consider TAAGGCACGTGTTAAT, for which the “relative binding free energy” value was -0.05 kcal/mol.

Take CCAGGCACGTGTGGGG: the “relative binding free energy” value was -0.18 kcal/mol. As for CGCGGCACGTGATTAG, the “relative binding free energy” value worked out at 0.12 kcal/mol.

With TTAATCACGTGAGATA, the “relative binding free energy” value stood at 0.18 kcal/mol. On to ATGGTCACGTGAGAAG, for which the “relative binding free energy” value amounted to 0.19 kcal/mol. With GGGGGCACGTGAGCTA, the “relative binding free energy” value worked out at 0.05 kcal/mol. For TTTGTCACGTGTAGTG, the “relative binding free energy” value came to 0.19 kcal/mol. Take AGCTACACGTGTTAGG: the “relative binding free energy” value came out at 0.15 kcal/mol. As to TGTAACACGTGTGCGT, the “relative binding free energy” value is 0 kcal/mol. With GTTATCACGTGAGTAG the figure was 0.32 kcal/mol. Take AGTTGCACGTGTTGTT: the “relative binding free energy” value stood at 0.1 kcal/mol. With GCGTACACGTGGATTG the figure was 0.12 kcal/mol.
